The supplement of paper PMC8512760
This is one part of the list. Many values rest on one well or one pass, so single values are uncertain.

Key:
Assay in all cases: cell viability relative to vehicle (% of vehicle); basal-like triple-negative breast cancer lines; higher = less cytotoxic
Conditions in all cases: 10 µM; 72 h
HCC-1143 = test system: HCC-1143
HCC-1187 = test system: HCC-1187
MDA-468 = test system: MDA-468
SUM-149 = test system: SUM-149
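Further: stably firefly luciferase-GFP labeled cells in 96-well plates, viability read as luciferase photon flux after d-luciferin addition, treated wells normalized to vehicle wells, single-dose high-throughput screen.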

SMILES	cell viability (HCC-1143)	cell viability (HCC-1187)	cell viability (MDA-468)	cell viability (SUM-149)
CC(C)n1c(C=CC(O)CC(O)CC(=O)O)c(-c2ccc(F)cc2)c2ccccc21 (configuration not stated) [Fluvastatin]	78.3	55.3	37.6	87.7
Oc1c(Cl)cc(Cl)c2cccnc12 [Chloroxine]	69.1	64.4	54.2	10.6
C[C@H]1O[C@@H](O[C@H]2[C@@H](O)C[C@H](O[C@H]3[C@@H](O)C[C@H](O[C@H]4CC[C@@]5(C)[C@H](CC[C@@H]6[C@@H]5C[C@@H](O)[C@]5(C)[C@@H](C7=CC(=O)OC7)CC[C@]65O)C4)O[C@@H]3C)O[C@@H]2C)C[C@H](O)[C@@H]1O [Digoxin]	26.4	25.3	31.5	30
CCC(C)C(=O)OC1CCC=C2C=CC(C)C(CCC3CC(O)CC(=O)O3)C21 (configuration not stated) [Mevastatin]	86.5	91.2	78.5	63.8
[I-].[K+] [Potassium Iodide]	77.7	91.5	102	100
CN(Cc1cc(Br)cc(Br)c1N)C1CCCCC1.Cl [Bromhexine HCl]	71.6	91.3	120	135
CCCCCCCN(CC)CCCC(O)c1ccc(NS(C)(=O)=O)cc1.CCCCCCCN(CC)CCCC(O)c1ccc(NS(C)(=O)=O)cc1.O=C(O)C=CC(=O)O (configuration not stated) [Ibutilide Fumarate]	77	99.1	129	111
CC(=O)O.CC(O)C(CO)NC(=O)C1CSSCC(NC(=O)C(N)Cc2ccccc2)C(=O)NC(Cc2ccccc2)C(=O)NC(Cc2c[nH]c3ccccc23)C(=O)NC(CCCCN)C(=O)NC(C(C)O)C(=O)N1 (configuration not stated) [Octreotide acetate]	72	92.3	111	106
